Drawing on the RNAGym collection of RNA variant scans (doi:10.7554/elife.90254), this text covers self-cleavage for 56 variants.

The source gives no read counts; variants with many changes may rest on few reads.

B1: LINE1-mini (parent)
chain: GGCAGAGCUCAACACAGCGUGGCAAAGUGGCUGUGGCUAGACUGCC

The variants in the data set derive from B1. Nature of the data set: self-cleavage, relative activity (ratio to wild type); higher = more cleavage; in vitro, sequencing; the parent is a self-cleaving ribozyme.
Regarding GGCAGAGCCCAACACAGCGUGGCAAAGUGGUUGUGGCUAGACUGAC, the self-cleavage stood at 0.01.

In the case of GGCAGAGCCCUACACAGCGUGGCAAAGUGUCUGUGGCUAGACUGCC, the self-cleavage was found to be 0.03.

On to GGCAGAGCCCAACACAGCGUGGCAAUGUGGCUGUGCCGAGACUGCC, for which the self-cleavage amounted to 0.02.

Consider GGCAGAGCCCAAUACAGCGUGGCAAAGUUGCUGUGGGUAGACUGCC, for which the self-cleavage came out at 0.01.

With GGCAGAGCCCAACACAGCGUGGCGAAGUGGCUGUCACGAGACUGCC, the self-cleavage was 0.03.

GGCAGAGCCCAACAGAGCGUGGCAAAGUGGCUGUUGCUAGACUGCC: the self-cleavage is 0.05.

With GGCAGAGCCCAAUACAGCUUGGCAAAGAGGCUGUGGCUAGACUGCC, the self-cleavage stood at 0.01.

In the case of GGCAGAGCACAACACAGCGUGGCAAAGUGGCUGUGGCAAGAGUGCC, the self-cleavage was 0.02.

For the variant GGCAGAGCCCAACACAGCGCGGCAAAGUGGCUGUGGCUCGACUGCC, the self-cleavage is 0.04.

For the variant GGCAGAGCCCAAAACAGCGGGGCAAAGCGACUGCGGCUAGACUGAC, the self-cleavage is 0.

Take GGCAGAGCCAAACACAGCGUGGCAAAGUGGCUGUGGCAAGACUGCC: the self-cleavage was determined as 0.02.

Take GGCAGAGCCCAACACAGCGUGGUAAAGGGGCUGUGGCUAGACUGCG: the self-cleavage stood at 0.01.

For the variant GGCAGAGCCCAACACAGCUUGGCAAAGUGGCUGUGGGUAGACUGCC, the self-cleavage was found to be 0.02.

Regarding GGCAGAGCCCUACACAGCGUGGCAAAGUGACUUUGGCGAGACUGCC, the self-cleavage amounted to 0.03.

For the variant GGCAGAGCCCAACACAGCGUGGCAAAGUGGCUGUGCCUUGACUGAC, the self-cleavage came to 0.02.

Take GGCAGAGCCCAACACAGCGCGGCAAAGUGGCUUUGGCUAUACUGCC: the self-cleavage was 0.04.

With GGCAGAGCCCAACACAGCGUGGGAAAGUGGAUGUGGCUAGACUGCC, the self-cleavage was found to be 0.01.

Regarding GGCAGAGCCCAACACAGCGUGGCAAAGUGGCGGUGGCUGGACUGCC, the self-cleavage was 0.03.

As to GGCAGAGCCAAACACAGCGUGGCAAAGUGGUUGUGGCUAGACUGCC, the self-cleavage was 0.01.

For the variant GGCAGAGCCCAACACAGCGUAGCAAAGUGGUUGUGGCUAGACUGCC, the self-cleavage was found to be 0.02.

Regarding GGCAGAGCCCAACACAGCGUGGCAAGGUGGCUAUGGCUAGACUGCC, the self-cleavage came out at 0.01.

On to GGCAGAGCCCAACACAGUGUGUCAAAGUUGCUGUGGCUAGACUGCC, for which the self-cleavage worked out at 0.04.

For GGCAGAGCCCAACACAGCGUGGCAAAGUGGCUGUGGCGAGACUGUC, the self-cleavage was determined as 0.02.

GGCAGAGCCCAACACAGCGUGACAAAGUGGCUGAGGAUAGACUGCC: the self-cleavage came to 0.03.

GGCAGAGCCCAUCACAGCGUGGCAAAAUGUCUGUGGCUAGACUGCC: the self-cleavage came out at 0.02.

As to GGCAGAGCCCAAGACAGCGUGCCAAAGUGGCUGUGGCUAGACUGCA, the self-cleavage stood at 0.01.

As to GGCAGAGCCCCACACACCCCGGCAAGGUGUCUGUGGCUAGACUGCC, the self-cleavage was determined as 0.01.

For the variant GGCAGAGCCAAACAGAGCGUGGCAAAGUGGCUGUGGCUAGACUGCC, the self-cleavage worked out at 0.

Consider GGCAGAGCCCAACCGAGCGUGGCAAAGUGGCUGUGGCUAGACUGCC, for which the self-cleavage is 0.01.

GGCAGAGCCUAACACAACGUGGCAUAGUGGCUGUGGCUAGACUGCC: the self-cleavage was 0.03.

For the variant GGCAGAGCCCAACACAGCGUGGAUAAGUGGCUGUGGGUAGACUGCC, the self-cleavage turned out to be 0.

Regarding GGCAGAGCCCAACACAGGGUGUCAAAGUGGCGGUGGCUAGACUGCC, the self-cleavage was 0.02.

For GGCAGAGCCCAACAAAGCGUGGCAAAUUGGCUGUGGCUAGACUGCC, the self-cleavage is 0.

In the case of GGCAGAGCCCAAAACAGCGUGGCACAGUGGCUGAGGCUAGACUGCC, the self-cleavage stood at 0.01.

With GGCAGAGCCCAAGACAGCGUCGCAAAGUGGCUGUGGCUAGACUGCC, the self-cleavage turned out to be 0.02.

For the variant GGCAGAGCACAACACAGCGUGGCAAAGUGGCUGUGGCAUGACUGCC, the self-cleavage is 0.05.

Take GGCAGAGCCCAACACAGCGUGCCAAAGAGGCUGUGGCUAUACUGCC: the self-cleavage turned out to be 0.06.

For the variant GGCAGAGCCCAACACAGCGUAGCAAAGUGGAUGUGGCUAACUUCCC, the self-cleavage came to 0.01.

With GGCAGAGCCCAACACAGCAUGGUAAAGUGGCUGUGGCUAGACUGCA, the self-cleavage is 0.06.

Regarding GGCAGAGCCCACUACAGCGUGGGAAAGUGGCUGGGGCUAGACUGGC, the self-cleavage stood at 0.01.

As for GGCAGAGCGCCACACAGCGUGGCAAAGUGGCUGUGGUAAGACUGCU, the self-cleavage came out at 0.01.

As to GGCAGAGCACAACACAGCGUGGCAAAGGGACUGUGGCUAGACUGCC, the self-cleavage is 0.24.

As for GGCAGAGCCCGACCCAGCGUGGUAAAGUGGCUGUGGCUAGACUAUA, the self-cleavage came to 0.01.

Take GGCAGAGCCCAACACAGCGUGGCAAAGUGGCUGUGUCUUGACUUUC: the self-cleavage worked out at 0.05.

On to GGCAGAGCCCAACACAGCGUGGCAAUGUGGCUGUGGGUAGACUGCC, for which the self-cleavage worked out at 0.04.

Take GGCAGAGCCCAACACAGCGUGGCAAAGUGGCUCUGGGUAGACUGCC: the self-cleavage stood at 0.02.

On to GGCAGAGCCCAACACAGCGUGGCUAAGUGACUGUCGCUAUACUGCA, for which the self-cleavage turned out to be 0.01.

For the variant GGCAGAGCCCAACACAGCGUGGCAAGGUGGCUGUGUCUAGACUGCC, the self-cleavage amounted to 0.03.

Consider GGCAGAGCCCAUCACAGCGUGGCAAAGUGGCUGUGGCUAGACUGCU, for which the self-cleavage turned out to be 0.02.

As for GGCAGAGCACAACACAGCGUGGCAAAGGGGCUGUGGAUAGACUGCC, the self-cleavage came out at 0.06.

On to GGCAGAGCCCAACACAGCGUGGCACAGUUGAUAUGGCUAGACUGCC, for which the self-cleavage was 0.

As to GGCAGAGCCCAACACAGCGAGGCAAAGUGGCUGUGGCUAGACUACC, the self-cleavage stood at 0.01.

On to GGCAGAGCCCAACACAGCGUGGCAAAGGGGCUGUGGCUAGACUGCA, for which the self-cleavage turned out to be 0.02.

GGCAGAGCCUAAAACAGCGUGGCAAAGUGGCUGUGGCUAGACUGCA: the self-cleavage stood at 0.03.

Turning to GGCAGAGCCCAACACAGCGUGGCAAAGUGGCUGUGGCUAGACUACU, the self-cleavage was 0.12.

As to GGCAGAGCCCAACACAGCGUGGCAAAGUGGCUGUGGCUAGACUGGG, the self-cleavage was 0.02.
